The other results are listed elsewhere or left out.
System: PF3D7_0420300 AP2 domain 1 (GST-tagged)
Experiment: gcPBM binding intensity (ln(normalized median fluorescence intensity)); higher = stronger DNA binding
Method in brief: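 Each value is the highest Masliner-normalised natural-log median intensity across replicate spots of either orientation of a probe. The probes were primer-extended double-stranded 36-bp intergenic genomic sequences on an Agilent 4 × 180k array, alongside negative controls, exposed for 1 h to GST-tagged P. falciparum DNA-binding domains expressed in E. coli. Bound protein was picked up with Alexa488 anti-GST antibody and scanned at 488 nm.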

Sequence | gcPBM binding intensity (ln)
GATATGATGAGATTGATATTCATAAGAGGATTAATG [GTGCAC_negctrl_site515] | 9.03
TGTATGTATGTATTATTTGTTATTTTAATTTTTTTG [TGCATGCA_negctrl_site256] | 9.61
AAAAATGATATGAGTTGTACATAAGTAAGAATTATT [XGTACX_site7089] | 9.4
TAAAAACGATTTTTTGCACACACATAATAAGCAGAA [CACACA_site3870] | 9.81
GGACAAGTTAAACGCACACAAATATATACCCCCATA [CACACA_site4996] | 9.9
AAAGGGGAGATATGAACACACAAAAAAAAAATATAT [CACACA_site7378] | 9.58
TATATATATTTTAAATGTACTTATAAATTACCACTT [XGTACX_site5673] | 9.09
AAATAAAATTTTTGTTGTACTTATTTTTAGTATACT [XGTACX_site4254] | 9.24
AATATTTACAGACATGCGCACACATAAATAAATAAT [CACACA_site8760] | 9.59
AGAAAGGATATAAGCGTAGCTATATCATAAAAAATG [GTGCAC_negctrl_site332] | 9.06
TAAATAAATTTGCACTGTACGCAAAAAAAAAAAAGA [XGTACX_site8781] | 9.29
GTATATATATATTTATGTACTTACCTACATAATTAT [XGTACX_site4435] | 9.49
TGAAAAAAAAAATGCACACGCATACATATAATATGT [CACACA_site641] | 9.41
AAACATAAATATGAGAGTACAAAAAATATTATGAAT [XGTACX_site151] | 9.56
ATCTCTTAAATTTTACGTACTTATTTTATCTTCTTA [XGTACX_site8877] | 9.66
TTATAATATATTACAAGTTCATTCATATAATATGTT [CACACA_negctrl_site1695] | 9.12
AATAAATACATACATACATGCATACATATATCTCAA [TGCATGCA_site1040] | 9.34
AAAAATAAAATATATATATATATATATATATATATA [CACACA_negctrl_site58] | 8.95
TATTTTTATATATATACACACTTACAGATATATATT [CACACA_site5905] | 9.4
AATCCTTACAGACACACACACACGAATAAATAAAAA [CACACA_site480] | 10
TATGTATTATCAAAAAGTACTAAAAAAAAATAATAA [XGTACX_site4703] | 9.19
TATATATGTATATGTGTGCACCTTATTTCTTTTATT [GTGCAC_site9513] | 9.66

Sequence | gcPBM binding intensity (ln)
TTATAATTTTTGAGCACACACAAGCATATATATATA [CACACA_site1798] | 9.38
ATAAATGTTATGCATACACACTTTATACCTATTTAA [CACACA_site5967] | 9.41
CCTTTTAAGAGTTGCACACGTACAAAAAAAAAAAAA [CACACA_site3492] | 9.01
AATAATAAAAAATACGCACACATGTAAACGTATGTT [CACACA_site3336] | 9.47
GGCGATATAGAACTACGTACTTATACAAATTATAAT [XGTACX_site2307] | 9.12
ACACATAAATGTATATATATATAAATATATGTATGT [CACACA_negctrl_site1532] | 9.44
TATATATATATATATAAGCTTATAATAAAACAAAAA [XGTACX_negctrl_site568] | 9.29
ATAGCAATAATGGAAAGTACAAAAAAACTTGTTATA [XGTACX_site8518] | 9.29
TGTATTAATAAAAATACACACATCATATTATATAAA [CACACA_site3534] | 9.3
AACAAAATAAAACACACACACAAATGTACATATATA [CACACA_site2424] | 10.2
TAGAAGCATCATTTTACACACATGCAAATGTAAACT [CACACA_site6973] | 9.41
ATTTTGTATTGACGCTGTACAAACATTAATATAATA [XGTACX_site2496] | 9.17
TTTTGCGTAGCAACGAGGTTTTTAAAAATGTAACCA [GTGCAC_negctrl_site691] | 8.85
ACATATGAATATTTTTGTACGTATATTGTTATTCTT [XGTACX_site4720] | 9.61
AAAAAAAAAAAACACACACACACATACAAAATATAT [CACACA_site1448] | 10.3
TTTTTTTTTATTATCATGCACACATTTTTTTTTTTT [CACACA_site2254] | 9.61
GTAATTTAAATAACAAGTACTAATGTGGATAAGCAG [XGTACX_site1163] | 9.51
AATTATACGAAATAAAACTTAATAGACAAAAAATTA [CACACA_negctrl_site1384] | 9.33
ATAATATGCAATATTACACACAATTCATCATTTTTT [CACACA_site7477] | 9.46
GTATATTTAAATAAAAGTACGTAAAGATATATTTAA [XGTACX_site8087] | 9.04
ATATGTAAAATGAAGATACATACATACATACATACA [CACACA_negctrl_site715] | 9.26
ATGTTATAAAATATATGTACATATTTATATAAAATA [XGTACX_site5766] | 9.14

Sequence | gcPBM binding intensity (ln)
ATATTATATATATGATGTACTAAATATATTATTATG [XGTACX_site1703] | 9.22
ATAAATAATTAGAATTGTACAAAAATTATATATATG [XGTACX_site5107] | 9.21
TATTTTATATTATCATGTACAAAAAAAAAGAAAAGA [XGTACX_site5379] | 9.17
TTTATATTCTTTTTTTAACACACAAAAAAAATAAAA [CACACA_site8574] | 8.98
TCTATTAATGAATATACACACATTATATATATATAT [CACACA_site5410] | 9.43
ATATATTTATATAAATGTACACGTGAATATATAATA [XGTACX_site1166] | 9.33
TATATAAAAAGTAATTGTACATATATATATATATAT [XGTACX_site7953] | 9.03
TATGCAAATTAATAATGTACGAAATATTTATAATTT [XGTACX_site2324] | 9.02
AAAAGGAACGGACACACACACATATATATATATATA [CACACA_site5894] | 9.82
AATAAATTAGAAGGATGTACTTTGTTTAATATAGAG [XGTACX_site1943] | 9.23
TAATATAATCTGAGTGCACACAAATAAATAAACATA [CACACA_site8032] | 9.54
AGGTTATATATGAACAAAAATAAAATATTCATAGGC [TGCATGCA_negctrl_site46] | 9.61
GTTATACATTTGAAAAGTACTCATGATTTTTTTTTT [XGTACX_site8177] | 9.24
AATATTCAATATAAAGTGCATTATTGTGCCCCTAAT | 9.06
TTTTTATTGTTATACTTATATTATTTTATGATTAAA [XGTACX_negctrl_site262] | 9.15
ATAAAAATCAAAAAAAATACATAATAGTAATAATAA [GTGCAC_negctrl_site481] | 9.46
AAATAATAAAGTATAACACACATATTTATTTATATA [CACACA_site7822] | 9.39
AAATAGAAAAAATATACACACACTTATTAAATAAAA [CACACA_site3313] | 9.86
CTGATATATTATTTATCTGAATATATTAATATGTAT [GTGCAC_negctrl_site82] | 9.11
AAAATTAAAAAAATATGTACTTATGGGTAACATCAT [XGTACX_site5548] | 9.24
TATCTTCATATATGGTGTACAGATTTTTTTTTTTTT [XGTACX_site5545] | 9.22
ATAAAATTATTATATACATGCAAAATTAATATATTG [TGCATGCA_site507] | 9.03

Sequence | gcPBM binding intensity (ln)
AAAATAAAAAAAATGAATTAGTTAAATGAAAAATAA [CACACA_negctrl_site1294] | 9.27
TTTCTTTTTTTGGGCACACAAAATTTTCTCATTTTA [CACACA_site68] | 9.22
ATTATATAATAATGCATGCACCTTATTTTCATTTCA [GTGCAC_site9922] | 9.28
TATTGAAAGTGAATTATAACATTAAAAATATATATA [TGCATGCA_negctrl_site566] | 9.11
TGAATATGTAAATGCACACCAAAAAAAAAAAAAAAA [CACACA_site3566] | 8.98
CAATATAAAAGACACACACACAAACATATATTTATA [CACACA_site7697] | 10.2
GAAGGAAATAAATCAACACACATATATTATAGATAT [CACACA_site7095] | 9.63
ATAATGTAAAATAAATGTACGCAATATATAAAAAAT [XGTACX_site5747] | 9.68
AAAAAATTTTAATATGCATGTAATTTTGCTTTTTCA [TGCATGCA_site1044] | 8.79
AGCACGCACAGACACACACACATATTTATATTTATA [CACACA_site6291] | 9.94
TAATATAGGGGTGTTCAAATAAATTTTGTTATTTTT [CACACA_negctrl_site1203] | 9.47
TCATTTTAAGGAAAAAGTACAAAATAATATGTTCCT [XGTACX_site1903] | 9.05
AATAGAAAAAAAAAATGTACAAAATGTTTATAAAAA [XGTACX_site4635] | 9.38
GATGTGTAAATAAGGATATATAACAATCAACAAAAC [XGTACX_negctrl_site494] | 9.72
ACGAATATAGGATGTTTGCACTGTACCAATAAATGA [GTGCAC_site9808] | 9.24
ACCTATTTCAAACACACACACACACCCACAAACATA [CACACA_site977] | 10.4
TTCTTAATACAAATATGTACATATATATATATATAT [XGTACX_site757] | 9.21
AAATTACCCTTGTGTACACATATATTATCTGTATTA [CACACA_site4514] | 9.69
AAATGAATATAAAATATACACACTTATATATTGAAT [CACACA_site202] | 9.47
GCTTATTAATATCATACACACATAGATATATTTATA [CACACA_site3104] | 9.54
TAAAAAATATAAACTGCACACACACTAATAAAGAAA [CACACA_site8119] | 10.1

Reference: the supplement of paper PMC11417369
